Measurements published in the supplement of paper PMC11417369.
± gives the standard deviation of the averaged measurements. The list shows a part of the results.

System: PfAP2-EXP AP2 domain (GST-tagged)
Test: gcPBM binding intensity (ln(normalized median fluorescence intensity)); higher = stronger DNA binding
Method in brief: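 Each value is the highest Masliner-normalised natural-log median intensity across replicate spots of either orientation of a probe. The probes were primer-extended double-stranded 36-bp intergenic genomic sequences on an Agilent 4 × 180k array, alongside negative controls, exposed for 1 h to GST-tagged P. falciparum DNA-binding domains expressed in E. coli. Bound protein was picked up with Alexa488 anti-GST antibody and scanned at 488 nm.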

Row | Sequence | gcPBM binding intensity (ln)
1 | TAAAATATGTCATGGGTGCTTCTTTTTATACCTATG [GTGCAC_site9888] | 8.61 ± 0.31
2 | AAAAAAAAAAAATTATGTACATATTATATATAATGG [XGTACX_site2885] | 8.65 ± 0.53
3 | AAATATTATAATAATTGTACTATATATACAGTTATT [XGTACX_site1963] | 8.34 ± 0.38
4 | TTTTATATTTATTTTTGTACATAAATGATCTCAAAT [XGTACX_site7768] | 8.53 ± 0.29
5 | TGTTTTTAAAAATATACACACACAGATATTATATAT [CACACA_site8162] | 8.4 ± 0.39
6 | ACTTAAATAATACATACACACATGTACTTACAGAAA [CACACA_site8458] | 8.53 ± 0.33
7 | AGAAAAAAAAAAAAAAATAAAAAAATAAATAAATAA [GTGCAC_negctrl_site161] | 8.24 ± 0.69
8 | TATGATAACCATAATTGTACAGAATGAAACGTAAAT [XGTACX_site1653] | 9.04 ± 0.58
9 | ATATATTTTTCTTTACGTACGAAGCAAAATAACATT [XGTACX_site8145] | 8.5 ± 0.38
10 | AAATGAACATATATGTGTACTTATATTTTTCTAAAT [XGTACX_site3388] | 8.41 ± 0.28
11 | AATTGTTTTTTTTTCTTATTTTATGTTATACACACA [TGCATGCA_negctrl_site380] | 8.78 ± 0.59
12 | AAAAAAAAAAAAAACACATGCAGAAGAAAAAAAATA [TGCATGCA_site545] | 9.12 ± 0.23
13 | TCATTAAATGTTTAGGTGCATACTTTAATTTTTAAT [GTGCAC_site9906] | 8.56 ± 0.16
14 | AAAAAAAAAAAAAAAGTGCATATATAAATATTGTAT [GTGCAC_site9459] | 8.62 ± 0.3
15 | ATTATATAAGTACACAAACAAGTATGAGATTCAAAA [GTGCAC_negctrl_site119] | 8.62 ± 0.38
16 | TGTTTTAAACTAATTTGTACATAGTTATTTATATTT [XGTACX_site7196] | 8.54 ± 0.46
17 | TATTAATTTCGGGAAGTGCATTATGTTTATAGAATA | 8.675 ± 0.021
18 | CCATATATTTGGTATAGTACTTTTTATTTTATTTCA [XGTACX_site8933] | 8.66 ± 0.33
19 | CCTCATACGAAATATAAACACACATACAATAAATAA [CACACA_site8620] | 8.7 ± 0.59
20 | TATGCACTTTAGGGCAGTACGTCAACATTATCTTTA [XGTACX_site3382] | 8.26 ± 0.17
21 | TGTTAAAATTATTTGGTGCACTTGTTTTACCTTATT | 9.3 ± 0.49
22 | TATATTTATTATAACACACACATATAAATATTATAG [CACACA_site6726] | 8.51 ± 0.35
23 | ATTTTTTTCATAGACACACACAATATATCTGTTTCC [CACACA_site3023] | 8.83 ± 0.52

Row | Sequence | gcPBM binding intensity (ln)
24 | ATAAATTTTTTTTTTTTTTTTTTTTTTTTTTTTTTT [CACACA_negctrl_site508] | 9.19 ± 0.057
25 | ATATTATTATATATAGTGCATATTATTATTTTTATT | 8.645 ± 0.049
26 | CATTATTCTTTTAATATACACACTTTGTCTTTTCGC [CACACA_site2762] | 8.61 ± 0.47
27 | TCTCATAGTAAACACACACACACACCCACATATATA [CACACA_site5034] | 8.74 ± 0.56
28 | TCTTCTTTTTTTTTTTTGTATTATTATAAATATTAT [CACACA_negctrl_site1668] | 8.66 ± 0.38
29 | GAAGTTTTCTTAAAGATGCACTTTTTAAAAATAAAA [GTGCAC_site9941] | 8.32 ± 0.17
30 | AAGATAAAATGATGCACACAAAAGGGTGTAATATAT [CACACA_site1706] | 8.8 ± 0.41
31 | TTTTTTTTTTTTAATGCACACAATATATAATATGTA [CACACA_site3694] | 8.85 ± 0.45
32 | TTTTTTTTTTTTCAATCACACATGTTTTAATTATTT [CACACA_site5532] | 8.48 ± 0.58
33 | TCATTTCACAGACACACACACACAAGATATTTCCTT [CACACA_site7774] | 8.7 ± 0.45
34 | TGTAATAATATTTATGTGCACATATATTAAACTATA [GTGCAC_site9584] | 8.75 ± 0.11
35 | TGTACGTTTTATAACACACACACAAAAAAAAAAAAA [CACACA_site3875] | 8.37 ± 0.43
36 | TTTCTTCTTCAATGTTGTACTTTTCTCTTTTCTTAA [XGTACX_site1017] | 9.05 ± 0.49
37 | GTTCATAAAAATTTTTGTACCCATAAAATATTCCTC [XGTACX_site8611] | 8.76 ± 0.39
38 | TTTTTTTTTTTTAATTGTACTTATTAAAAAAAGCAA [XGTACX_site8713] | 8.25 ± 0.11
39 | GTAGGTGTTTTTGGTTGTACATATAAATATATATAC [XGTACX_site3380] | 8.95 ± 0.37
40 | AGATAAATATATTGTAGTACAGGAGCATAAATATAT [XGTACX_site8267] | 8.93 ± 0.35
41 | TATTTTCATTATACTACTTCGAAGATACCCTTTTTT [CACACA_negctrl_site256] | 8.83 ± 0.54
42 | GTTCTTCCTTGTAAATGTACAAATACAAAATGTTCC [XGTACX_site6738] | 8.96 ± 0.45
43 | TATAAACATTAAAGGTGTACAATTTAATTTCAATTT [XGTACX_site2944] | 8.41 ± 0.37
44 | ATATCATAAAAAATGTGTACATATATGAACATATAA [XGTACX_site2239] | 8.64 ± 0.24
45 | TTAAGATCCTAAAAAACACACAATTGCGAATAATAA [CACACA_site6005] | 8.76 ± 0.54
46 | GATATATATGTTCACACACACATGGAAATATATATA [CACACA_site4371] | 8.62 ± 0.4

Row | Sequence | gcPBM binding intensity (ln)
47 | GGAAATTAACAGAACACAATGTAACAATTTCTAACA [CACACA_negctrl_site1250] | 8.63 ± 0.51
48 | TTTTTTTTTTTTTTTTTTTATGTATACATATTTATA [TGCATGCA_negctrl_site234] | 8.28 ± 0.43
49 | TCATTTTAAAAAAATAGTACTTTAAGAAACTTTTAT [XGTACX_site602] | 8.02 ± 0.38
50 | GATATTCTATAAAAAAGTACAAATATTTTAAAAAAT [XGTACX_site2177] | 8.55 ± 0.38
51 | TAAATCCTTTACAACACACACACAAAAAAAAAAAAA [CACACA_site643] | 8.31 ± 0.48
52 | AGCATTAATTATTTCACACATATATATATATATATA [CACACA_site4889] | 10.1 ± 0.41
53 | ATCAGTGATTAGGTTATATATAAAAATGAACTAATA [GTGCAC_negctrl_site647] | 8.59 ± 0.54
54 | ATATTCATGTTGATATGTACTTATTCTATATTGAAT [XGTACX_site8347] | 8.46 ± 0.46
55 | TATATATATATATATATACACACTTGTGCAGAATAT [CACACA_site2216] | 10.2 ± 0.41
56 | ATATTTATATATAGTAGTACTTTCAATAATTTAAAT [XGTACX_site7276] | 8.39 ± 0.3
57 | AATACAAGAACTGACACACATACATACTACATTTTA [CACACA_site2829] | 8.7 ± 0.42
58 | AAAGAAAGAAGACACACACACATATATAAATATCAA [CACACA_site7715] | 8.66 ± 0.59
59 | TCTTAAAATATATAGGTGCAAAAAAAAAAAAAAAAA | 8.31 ± 0.13
60 | TATGATATTTATATGCGTACTGAAGTATGCCTATTT [XGTACX_site6133] | 8.56 ± 0.38
61 | AAAAAATTAAAAATACGTACATATATACATATATAT [XGTACX_site4621] | 8.43 ± 0.2
62 | TAAGAAATAAATAGTACACACATAGACACAGACACA [CACACA_site4934] | 8.91 ± 0.45
63 | TTTAAATACAGACATACACACATACACCCACATATA [CACACA_site8078] | 8.9 ± 0.51
64 | TGTTTTTATTTATTCTGTACTGAAGAGAGTTATATA [XGTACX_site8859] | 8.59 ± 0.38
65 | GTATATGAGAAAAAAAGTACATGCACAAAATGTATA [XGTACX_site6441] | 9.21 ± 0.23
66 | ATATAAATTTTTTATGAACACACAAATACAGACACT [CACACA_site8848] | 8.97 ± 0.53
67 | AGATTAAAATAATATAAACACACATATACTTTTTTC [CACACA_site8085] | 8.23 ± 0.35
68 | ATAATTAAAAAAAATTGTACATATAAATAGAAGATT [XGTACX_site230] | 8.87 ± 0.42
69 | TAGGTATGCTCTCAATGTACATAAAATAATTTTACT [XGTACX_site6556] | 8.56 ± 0.33

Row | Sequence | gcPBM binding intensity (ln)
70 | AAAAAAAAAAGAATAGCACACACACCGATATAAATA [CACACA_site8111] | 8.88 ± 0.4
71 | TTTATGTGTATTAAGTGTACACATATAGTGTATTTT [XGTACX_site999] | 8.42 ± 0.31
72 | ATATATAAGGAAAAAAGTACTTATATTTTTTTTTTG [XGTACX_site1909] | 8.01 ± 0.33
73 | AACAAATGTTAAATGTTTAAGGAGAAAATAAAGACA [CACACA_negctrl_site1163] | 8.77 ± 0.49
74 | AAAACGAAACATCTGTGTATAAGTCTATATTATTAT [XGTACX_negctrl_site301] | 8.45 ± 0.51
75 | GAAAACATAAAAATATGTACTTAAAATATATTTTGT [XGTACX_site868] | 8.38 ± 0.4
76 | TGTCATGATACATACACACACATACCCATACCCATA [CACACA_site5211] | 8.81 ± 0.52
77 | AAATAAAGCATGTGCTGTACAAACGAAATATTTAAG [XGTACX_site3146] | 9.09 ± 0.37
78 | TTTTTTTTTTTTCATTGTACTCTTAAAAATTCAACT [XGTACX_site3154] | 8.55 ± 0.4
79 | TAAAATGTACAGGACGCACACACATATATATATATA [CACACA_site3673] | 10.1 ± 0.22
80 | TATTTTTTTTTTTTTTTACACACTATAGGGAAAAAA [CACACA_site8583] | 8.21 ± 0.34
81 | ATTAAAATTTAAAATACACACACATATATATAATAT [CACACA_site8612] | 8.7 ± 0.42
82 | AACAACAACTAATATGCACACATTTAAAAACAAAAT [CACACA_site2440] | 8.6 ± 0.54
83 | TTATAATGAAATATATTCTTATTCTTTTTTTTTTTT [GTGCAC_negctrl_site384] | 8.01 ± 0.38
84 | GCTTCTTAATATCATACACACATAGATATATTTATA [CACACA_site5676] | 8.82 ± 0.38
85 | GGAGACTTTGTATTGGGTACGTATTTCAATGCATGT [XGTACX_site1596] | 8.73 ± 0.46
86 | CTTCCTATATTTTACTGTACTTTTTTTTTTTTTTTT [XGTACX_site4016] | 8.93 ± 0.38
87 | TTTTTTAACAAAAATAAAACATAACTGAATTAAAAG [GTGCAC_negctrl_site244] | 8.52 ± 0.36
88 | CATACATACATACATACACACACATATATATATATA [CACACA_site8593] | 10.1 ± 0.22
89 | AAACCTTTACATCGTTTGCACTATATTGATATGTGT [GTGCAC_site9686] | 8.86 ± 0.38
